According to PubChem BioAssay AID938 (National Center for Advancing Translational Sciences (NCATS), 2007):
The whole screen tested about 73,000 compounds, of which about 1,800 (2.5%) were called active. Inconclusive results (about 13%) are left out. Calls follow the shape of the dose curve; as a rule, active = well fitted activation curve with a large enough effect; inconclusive = small, poorly fitted or top-dose-only effect; inactive = no such curve, though single readings can be large or run the other way. The list shows a part of the results, in another mix than the full data. More than one record can exist for a structure, and the calls need not agree.
Potency is read from the fitted curve at half-maximal effect.

Assay: qHTS Assay for Agonists of the Thyroid Stimulating Hormone Receptor: Activators of Intracellular cAMP Concentrations in Parental HEK 293; also: nearly all actives have a fitted effect of over 55% in size; as to activation: % of control where 0% means no effect
Conditions: parental HEK293 CNG cAMP sensor, membrane potential fluorescence; series mostly up to 57.1 µM; activation: at the top concentration
Excerpt: NIH Chemical Genomics Center [NCGC]
NIH Molecular Libraries Screening Centers Network [MLSCN]
PI Name: Dr. Marvin Gershengorn
This cell based assay utilized a cyclic nucleotide gated ion channel (CNG) as a biosensor for cAMP induction. HEK 293 cells stably expressing the modified CNG were purchased from BD biosciences (http://www.atto.com/products/actone/features_benefits.shtml) . Stimulation of cAMP production causes the CNG to open and subsequent membrane depolarization to occur. A fluorescent membrane potential dye (BD biosciences) was utilized to detect cAMP stimulation in cells.
The cells were maintained in DMEM medium (Invitrogen) containing 10 % FBS (Hyclone), 100 units/ml Penicillin, 100 ug/ml Streptomycin (Invitrogen), and 250 ug/ml Geneticin (Invitrogen) and 1 ug/ml Puromycin (Invitrogen) at 37C in 5% CO2. This assay was used as a counterscreen to "qHTS Assay for Agonists of the Thyroid Stimulating Hormone Receptor", to control for compounds signaling through endogenous receptors and other targets of HEK 293 cells.
NCGC Assay Protocol Summary:
High Throughput Screening. Freshly passaged cells were dispensed into 1536-well assay plates at 4 ul/well in DMEM containing phenol red (Invitrogen), 10% FCS (Hyclone), and 100 units/ml Penicillin, 100 ug/ml Streptomycin (Invitrogen) and incubated at 37 C with 5% CO2 for 20 to 36 hrs before the robotic screening. The screen was initiated by addition of 4 ul/well membrane potential dye containing 100 uM RO 20-1724 (Sigma Aldrich), followed by 60 min incubation at room temperature to allow for dye equilibration across the cell membrane. 23 nl/well compound or control was then added to the assay plates, which were incubated for additional 30 min before reading a Envision fluorescence plate reader (Perkin Elmer) in bottom-read mode for fluorescence intensity (emission at 590 nm).
Keywords: cAMP, CNG Ion Channel, quantitative high throughput screening, qHTS, HTS, probe identification, CNG, cAMP, cyclic nucleotide gated ion channel PubChem
With `NCC(O)c1ccc(O)cc1` (stereo not drawn) the Potency was “inactive”.
In the case of `C[C@]12N[C@@H](Cc3ccccc31)c1ccccc12`, the Potency is reported as “inactive”.
In the case of `CC(O)CCl` (stereo not drawn), the “activation” value is reported as inactive: -11.8%.
In the case of `O=C(C1CCCCC1)N1CCC(c2nc3c(nnn3Cc3c(F)cccc3Cl)c(=O)[nH]2)CC1`, the “activation” value is reported as inactive: -43.9%.
With `N#CC(C#N)=Cc1ccc(O)c(O)c1` the “activation” value was inactive: 51.8%.
For `Cc1cc(C)c(N)cc1C`, the “activation” value was inactive: 41.7%.
For `Fc1ccc(C(OCCN2CCN(C/C=C\c3ccccc3)CC2)c2ccc(F)cc2)cc1`, the “activation” value was inactive: -30.9%.
With `O=c1[nH]c2c(c(=O)n1C1CCCCC1)CCC2` the “activation” value was inactive: -55.6%.
With `O=C(NC[C@@H]1CCCCN1)c1cc(OCC(F)(F)F)ccc1OCC(F)(F)F` the “activation” value was inactive: 11.6% [at 25.6 µM].
For `COc1cc2c(c(OC)c1OC)-c1ccc(OC)c(=O)cc1[C@H](NC(C)=O)CC2`, the Potency was “inactive”.
With `NC(N)=Nc1ccc2[nH]c3c(c2c1)C[C@]1(O)[C@@H]2Cc4ccc(O)c5c4[C@]1(CCN2CC1CC1)[C@@H]3O5` the “activation” value was inactive: 0.177%.
With `CC(C)c1ccc2c(c1)CC[C@@H]1[C@@](C)(CN)CCC[C@@]21C` the “activation” value was inactive: -30.1%.
For `CCCCCCC(C)(C)c1ccc([C@@H]2C[C@H](O)CC[C@@H]2CCCO)c(O)c1`, the “activation” value was inactive: 27.2%.
In the case of `C=CC(=O)NCNC(=O)C=C`, the “activation” value is reported as inactive: -8.55%.
With `C/C=C\c1ccc(OC)cc1` the “activation” value was inactive: -0.0034%.
With `CCN(CC)C(=O)N[C@H]1C=C2c3cccc4[nH]cc(c34)C[C@@H]2N(C)C1` the “activation” value was inactive: 6.28% [at 25.6 µM].
For `C[C@]12CC[C@H](O)C[C@@H]1CC[C@H]1[C@H]2CC[C@]2(C)C(=O)CC[C@@H]12`, the Potency was “inactive”.
For `CC(C)(COCC1CO1)COCC1CO1` (stereo not drawn), the “activation” value was inactive: -0.834%.
With `NCC(CC(=O)O)c1ccc(Cl)cc1` (stereo not drawn) the “activation” value was inactive: -1.1%.
In the case of `CN(c1ccccc1)S(=O)(=O)c1cccc(C(=O)N2CCN(c3ccccn3)CC2)c1`, the Potency is reported as active: 15.8 µM.
With `NC[C@H](CC(=O)O)c1ccc(Cl)cc1` the “activation” value was inactive: 2.83%.
In the case of `Oc1ccc2[nH]cc(CCCCN3CC=C(c4ccccc4)CC3)c2c1`, the “activation” value is reported as inactive: -65.5%.
With `C=C(C)[C@H]1CN[C@H](C(=O)O)[C@@H]1CC(=O)O` the “activation” value was inactive: 8.38%.
With `N[C@@H](CP(=O)(O)O)C(=O)O` the activation was inactive: -0.232% [at 11.4 µM].
In the case of `O=C(O)CBr`, the “activation” value is reported as inactive: -21.4%.
In the case of `COc1ccc2c(c1OC)C(=O)O[C@H]2[C@H]1c2cc3c(cc2CCN1C)OCO3`, the Potency is reported as “inactive”.
For `ClC(Cl)=C(Cl)Cl`, the Potency was “inactive”.
With `CC(C)(C)c1cc(C=C(C#N)C#N)cc(C(C)(C)C)c1O` the Potency was active: 0.794 µM.
In the case of `COc1ccc2c(c1OC)C(=O)O[C@@H]2[C@H]1c2cc3c(cc2CCN1C)OCO3`, the “activation” value is reported as inactive: 25.1%.
With `O=C(O)c1nn(Cc2ccc(Cl)cc2Cl)c2ccccc12` the “activation” value was inactive: 3.5%.
With `C=CCN1CC[C@@]23c4c5ccc(O)c4O[C@H]2/C(=N\N=C2/CC[C@@]4(O)[C@H]6Cc7ccc(O)c8c7[C@@]4(CCN6CC=C)[C@@H]2O8)CC[C@]3(O)[C@@H]1C5` the “activation” value was inactive: 4.73%.
In the case of `Cc1cc(-c2cc(C)c(N)c(C)c2)cc(C)c1N`, the “activation” value is reported as inactive: -4.21%.
With `N[C@@H](CCP(=O)(O)O)C(=O)O` the Potency was “inactive”.
For `CC[C@@H]1[C@@H]2C[C@H]3[C@H]4N(C)c5ccccc5[C@@]45C[C@@H]([C@@H]2[C@@H]5O)N3[C@H]1O`, the “activation” value was inactive: 7.69% [at 25.6 µM].
In the case of `C=CCc1ccc(OC)cc1`, the “activation” value is reported as inactive: 11.1%.
For `Cc1ccccc1`, the Potency was “inactive”.
In the case of `O=C(CCCN1CCC2(CC1)C(=O)NCN2c1ccccc1)c1ccc(F)cc1`, the Potency is reported as “inactive”.
With `NC[C@H](O)c1ccc(O)cc1` the “activation” value was inactive: 4.67% [at 25.6 µM].
With `Nc1ccc(Cl)cc1N` the “activation” value was inactive: -5.5%.
With `CC[C@H]1CN2CC[C@@H]1C[C@H]2[C@@H](O)c1ccnc2ccc(OC)cc12` the “activation” value was inactive: 16.3% [at 25.6 µM].
With `C[C@@H]1O[C@@H](O[C@H]2C[C@@H](O)[C@]3(CO)[C@@H]4[C@@H](O)C[C@]5(C)[C@H]([C@@H]6COC(=O)C6)CC[C@@]5(O)[C@H]4CC[C@@]3(O)C2)[C@H](O)[C@H](O)[C@@H]1O` the Potency was active: 25.1 µM.
With `O=C1C2CC=CCC2C(=O)N1SC(Cl)(Cl)Cl` (stereo not drawn) the Potency was “inactive”.
For `Cc1ccc2c(c1N)C(=O)c1ccccc1C2=O`, the “activation” value was inactive: -50.7%.
For `Cc1nc(-c2ccc(-c3ccc(C(=O)N4CCc5cc6c(cc54)C4(CCN(C)CC4)CO6)cc3)c(C)c2)no1`, the “activation” value was inactive: -9.66%.
For `CC(C)c1cccc(C(C)C)c1O`, the Potency was “inactive”.
In the case of `CN1[C@H]2CC(OC(=O)[C@@H](CO)c3ccccc3)C[C@H]1[C@H]1O[C@H]12` (stereo partly drawn), the “activation” value is reported as inactive: 8.99% [at 25.6 µM].
With `COc1ccc2c(c1OC)C(=O)OC2C1c2cc3c(cc2CCN1C)OCO3` (stereo not drawn) the “activation” value was inactive: 8.04%.
With `c1ccc(C2CO2)cc1` (stereo not drawn) the “activation” value was inactive: 7.95%.
For `c1ccc(Nc2ccc(Nc3ccccc3)cc2)cc1`, the “activation” value was inactive: -54.3%.
With `Clc1nc(Cl)nc(Nc2ccccc2Cl)n1` the “activation” value was inactive: -22.4%.
With `CCCCC(CC)COC(=O)c1ccc(C(=O)OCC(CC)CCCC)c(C(=O)OCC(CC)CCCC)c1` (stereo not drawn) the “activation” value was inactive: -12%.
For `CO`, the “activation” value was inactive: -29.5%.
For `CCCN(CCC)[C@H]1CCc2c(F)ccc(O)c2C1`, the “activation” value was inactive: 13.7%.
For `Cc1ccc(N)c([N+](=O)[O-])c1`, the “activation” value was inactive: -20.5%.
In the case of `c1ccc(Nc2cccc3ccccc23)cc1`, the “activation” value is reported as inactive: 5.22%.
In the case of `COc1cc2c(c(OC)c1OC)-c1ccc(OC)c(=O)cc1[C@@H](NC(C)=O)CC2`, the Potency is reported as “inactive”.
For `Clc1cccc(C(Cl)(Cl)Cl)n1`, the “activation” value was inactive: 25.6%.
In the case of `CCCCc1ccc(C(=O)O)nc1`, the Potency is reported as “inactive”.
For `CC(C#N)CCC#N` (stereo not drawn), the “activation” value was inactive: -10.7%.
With `NC(N)=S` the “activation” value was inactive: 18.3%.
For `c1cc2ccc3cccc4ccc(c1)c2c34`, the “activation” value was inactive: 41.4%.
In the case of `OCCCBr`, the “activation” value is reported as inactive: 3.42%.
In the case of `NC(=NCCC[C@H](N)C(=O)O)N[N+](=O)[O-]`, the “activation” value is reported as inactive: 3.91%.
